± gives the standard deviation. Over roughly 3,000 sequences, “pre-steady-state target cleavage rate” has its median near 0.0079; the highest 2% begin near 0.2. The list shows a part of the results, in another mix than the full data.
Test system: MILI (PIWIL2) piRISC loaded with piRNA #2 (26 nt)
Assay: pre-steady-state target cleavage rate (min^-1); MIWI and MILI are mouse PIWI proteins and EfPiwi is from a freshwater sponge; tags in brackets are library labels; higher = faster piRNA-guided slicing of the target
Conditions: guide: piRNA #2 5'p-UUAGGUAACCCAGUAGAUCCAGAGGA; auxiliary factor: 500 nM mouse GTSF1
Outline: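 Using HEPES–potassium acetate buffer at 33 °C, 1 nM active affinity-purified piRISC with a single synthetic guide was mixed with 0.1 nM transcribed, DNA-blocked target RNA library for 0–8 or 0–960 min, with or without 500 nM GTSF1 partner protein. Uncleaved targets were sequenced and normalised to depth and to weakly complementary targets, and three trials were pooled with k3 capped at 0.0001 min^-1. A burst-and-steady-state fit gave the pre-steady-state cleavage rate.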

Row | Sequence | pre-steady-state target cleavage rate
1 | CUUAACCUCUGGAUCUACUGGGUAACGUAA | 0.0352 ± 0.014
2 | CUUAUCCUCUGGAUCUACACCGUUACCUAA | 0.00605 ± 0.002
3 | CUUAACCUCUGGUUCAACUGGGUUACCUAA | 0.117 ± 0.035
4 | CUUAAGGUCUGGGUCUACUGGGUUACCUAA | 0.0913 ± 0.015
5 | CUUAAGUUCUGGAUCUACUGGGUUACCUAA | 0.0903 ± 0.012
6 | CUUAAGCUCUCGAUCUACUGGGAUACCUAA | 0.0459 ± 0.013
7 | CUUAUCCUGUGGAUCUACUGGGUUUCCUAA | 0.0398 ± 0.015
8 | CUUAAGGAGUGGAUUUACUGGGUUACCUAA | 0.0478 ± 0.014
9 | CUUAUCCUCUGGAUCUACUGGGUUACCCUAA | 0.132 ± 0.049
10 | CUUAAGCUCUGGAUCUACUGGGUUACCUAG [g2:g24:cont:t1G] | 0.0912 ± 0.024
11 | CUUAUCCUCUGGUUCUACUCGGUUACCUAA | 0.0121 ± 0.0067
12 | CUUAAGGAGUGGAUCUACUGGGUUACCGAA | 0.00748 ± 0.0052
13 | CUUAAGGUCUCGUUCUACUGGGUUACCUAA | 0.0124 ± 0.0075
14 | CUUAAGGUUUGGAUCUACUGGGUUACCUAA | 0.0865 ± 0.016
15 | CUUAAGGAGUGGAUGUACUGGGUUACCUAA | 0.026 ± 0.018
16 | CUUAAGGAGAGGAUCUACUGGGGUUACCUAA | 0.00359 ± 0.0024
17 | CUUAAGGAGAGGAUUUACUGGGUUACCUAA | 0.0136 ± 0.0065
18 | CUUAAGGAGUGGAUCUACUGGGUUACCCUAA | 0.0105 ± 0.0063
19 | CUUAACCUCUGGAUCUACUGGGUUACCGAA | 0.139 ± 0.035
20 | CUUAACCUCUGGAUCUACGGGGUUACCUAA | 0.0813 ± 0.012
21 | CUUAAGGAGAGCAUCUACUGGGUUACCUAA | 0.0622 ± 0.024
22 | CUUAACCUCUGCAUCUACUGGGUUACGUAA | 0.155 ± 0.069
23 | CUUAACGUCUGGAUCUACUGGGUUAGCUAA | 0.0718 ± 0.021

Row | Sequence | pre-steady-state target cleavage rate
24 | CUUAUCCUCUGCAUCUACUGGGUUAGCUAA | 0.145 ± 0.054
25 | CUUAAGGUGUGGUUCUACUGGGUUACCUAA | 0.0301 ± 0.014
26 | CUUAAGGUCUGGAUCUAUGGGUUACCUAA | 0.0249 ± 0.0085
27 | CUUAAGCUCGGGAUCUACUGGGUUACCUAA | 0.0377 ± 0.025
28 | CUUAAGGAGAGGAUGUACAGGGUUACCUAA | 0.00394 ± 0.0038
29 | CUUAAGGAGUGGAUCUACAGGGAUACCUAA | 0.0177 ± 0.0073
30 | CUUAACCUCUGGAUCUACUGGGUUAGGUAA | 0.00918 ± 0.0056
31 | CUUAACCUCAGGAUCUACUGGGUUACCAAA | 0.0502 ± 0.016
32 | CUUAAGGAGUGGAAUCUACUGGGUUACCUAA | 0.00766 ± 0.0037
33 | CUUAAGCUCUGGAUCUAAUGGGUUACCUAA | 0.0186 ± 0.0042
34 | CUUAAGGUCUGGAUCUACUGGGUUAGCCUAA | 0.0884 ± 0.018
35 | CUUAUCCUCUGGAACUACUGGGUUACCAAA | 0.13 ± 0.044
36 | CUUAAGCUCUGGACUCUACUGGGUUACCUAA | 0.0196 ± 0.0083
37 | CUUAAGGAGUGGAUCUACUGGGUUACGCUAA | 0.0247 ± 0.0093
38 | CUUAAGGAGACCUAGAUGACGGUUACCUGAA | < 0.0001
39 | CUUAAGGUCUGGAUCAACAGGGUUACCUAA | 0.063 ± 0.011
40 | CUUAAGGACUGGAUCUACAGCGUUACCUAA | 0.0134 ± 0.006
41 | CUUAAGCUCUGGAUCUACUGGGGUUACCUAA | 0.0152 ± 0.005
42 | CUUAAGGUCUGGAUCCUACUGGGUUACCUAA | 0.03 ± 0.011
43 | CUUAAGGAGUGGAUCAACUGGGUUACCUUA | 0.00839 ± 0.0055
44 | CUUAAGGAGAGGAUCUACUGGGUCUACCUAA | 0.00349 ± 0.0035
45 | CUUAAGGUCAGGAUCUACUGGGUUUCCUAA | 0.0151 ± 0.0084
46 | CUUAUCCUCUGGAUCUAUUGGGUUACCUAA | 0.139 ± 0.036

Row | Sequence | pre-steady-state target cleavage rate
47 | CUUAAGGUCUGGAACUACUGGGUUACGUAA | 0.00872 ± 0.0071
48 | CUUAAGCUCAGGAUCUACUGGGUUACCUUA | 0.0671 ± 0.017
49 | CUUAAGGUCUGGAUCUACAGGGUUACCAAA | 0.106 ± 0.017
50 | CUUAAGGUCCGGAUCUACUGGGUUACCUAA | 0.0517 ± 0.023
51 | CUUAAGGUGUGGAUCUACUGGGUUACGUAA | 0.00525 ± 0.0044
52 | CUUAUCCUCUGGAUCGUACUGGGUUACCUAA | 0.00562 ± 0.0042
53 | CUUAACCUCUGGAUCUACUGUGUUACCUAA | 0.0349 ± 0.0087
54 | CUUAAGGUCUGCAUCUACUGGGAUACCUAA | 0.0141 ± 0.0086
55 | CUUAAGCUCUCGAUCUACUCGGUUACCUAA | 0.00409 ± 0.0019
56 | CUUAAGGCCUGGAUCUACUGGGUUACCUAA | 0.102 ± 0.019
57 | CUUAUCCUGUGGAUCAACUGGGUUACCUAA | 0.0451 ± 0.0081
58 | CUUAAGGACUGGAUCUACUGGGUUACCUGAA | 0.00949 ± 0.0087
59 | CUUAACGUCUGGAUCUACUGGGAUACCUAA | 0.0359 ± 0.0097
60 | CUUAACCUCUGGAUCUACAGCGUUACCUAA | 0.015 ± 0.0051
61 | CUUAAGGAGACCUAGAACAGGGUUACGUAA | < 0.0001
62 | CUUAACCUCUGGAAGAACUGGGUUACCUAA | 0.0271 ± 0.0098
63 | CUUAAGCUCUGCAUGUACUGGGUUACCUAA | 0.0586 ± 0.011
64 | CUUAUCCUCUGGAUCUACUGGGUUUCGUAA | 0.171 ± 0.071
65 | CUUAAGGUCUGGAUCUUGUGGGUUACCUAA | 0.0175 ± 0.0073
66 | CUUAACCUCUGGUAUCUACUGGGUUACCUAA | 0.584 ± 0.19
67 | CUUAAGGAGACCUAGAACUGGGAUUCCUAA | < 0.0001
68 | CUUAACCUCUGCAACUACUGGGUUACCUAA | 0.0899 ± 0.015
69 | CUUAACCUGUGGAUCAACUGGGUUACCUAA | 0.0679 ± 0.018

Row | Sequence | pre-steady-state target cleavage rate
70 | CUUAAGCUCUCGAUCUACUGGGUUACCUUA | 0.0783 ± 0.016
71 | CUUAAGCUCUGGAUCUACAGGGUUAGCUAA | 0.0295 ± 0.0094
72 | CUUAUCCUCUGGAUCUACUAGGUUACCUAA | 0.0905 ± 0.022
73 | CUUAAGCUCUGGAUCUACUGGGUUGACCUAA | 0.0696 ± 0.016
74 | CUUAAGGACUGGAUCCACUGGGUUACCUAA | 0.0312 ± 0.011
75 | CUUAAGGUGAGGAUCUACUGGGUUACCUAA | 0.0111 ± 0.0062
76 | CUUAAGGACUGGAUCUACAGGGUUUCCUAA | 0.0339 ± 0.011
77 | CUUAAGCUCUGGAUCUACUGGGUUACCGUAA | 0.0837 ± 0.022
78 | CUUAACCUGUGGAUCUACUGGGUUACGUAA | 0.0174 ± 0.0059
79 | CUUAAGGUGUGGAUCUACUGGGUUUCCUAA | 0.0102 ± 0.0047
80 | CUUAAGCUCUGGUUCAACUGGGUUACCUAA | 0.0564 ± 0.015
81 | CUUAACCUCUGCGAUCUACUGGGUUACCUAA | 0.0963 ± 0.019
82 | CUUAAGGAGUGGAUCUACUGGGUUACCUGAA | 0.0258 ± 0.015
83 | CUUAAGGAGAGGACCUACUGGGUUACCUAA | 0.00708 ± 0.0031
84 | CUUAUCCACUGGAUCUACUGGGUUACGUAA | 0.0135 ± 0.0041
85 | CUUAAGCUCUGGAUCUACUGGGUUAGCAAA | 0.0664 ± 0.023
86 | CUUAAGCACUGGAUCUACUGGGUAACCUAA | 0.0343 ± 0.012
87 | CUUAACCUCUGGAUCUACUGGGUAACCUAA | 0.0814 ± 0.021
88 | CUUAAGCUCUCGGAUCUACUGGGUUACCUAA | 0.064 ± 0.015
89 | CUUAAGCUCUGGAUCUACUGGGUUACCUAC [g2:g24:cont:t1C] | 0.0429 ± 0.012
90 | CUUAAGCUCUGGAUCUUCAGGGUUACCUAA | 0.0336 ± 0.0066
91 | CUUAAGGUCUGGAUCUACUGGGUUACCUAAA | 0.0897 ± 0.019
